Measurements reported in a melting point compilation (Tetko et al.; mined from patent text by program, amines drawn as free bases though some values may be those of a salt).

Compound CC(C)C(=O)NC[C@H]1CN(c2ccc3c(c2)CCCc2cn[nH]c2-3)C(=O)O1 has a melting point of 238 to 240 °C.
